# Test results: the supplement of paper PMC8728848
# This is one part of the list.
# B1: Dectin-1 (Mus musculus), Q6QLQ4 (protein)
# chain: GHNSGRNPEEKDNFLSRNKENHKPTESSLDEKVAPSKASQTTGGFSQPCLPNWIMHGKSCYLFSFSGNSWYGSKRHCSQLGAHLLKIDNSKEFEFIESQTSSHRINAFWIGLSRNQSEGPWFWEDGSAFFPNSFQVRNTAPQESLLHNCVWIHGSEVYNQICNTSSYSICEKEL
# How the values were obtained:
# Assay in all cases: glycan array binding signal (z-score within array); higher = stronger binding
# Conditions in all cases: glycan notation: IUPAC condensed, linker removed
# [1] = biological target: Man(a1-6)Man(b1-4)GlcNAc(b1-4)GlcNAc
# Summary of the method: (§1)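 Glycan array binding is given as a within-array Z-score, which can be read as non-binding when negative. The arrays, 3228 of them, came from the Consortium for Functional Glycomics database and were retained only where the protein sequence was available. Z-scores were averaged across arrays of the same protein sequence at different concentrations or buffers and across linkers.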
# Man(b1-4)GlcNAc = biological target: Man(b1-4)GlcNAc
# Summary of the method: as §1
# [2] = biological target: Man(b1-4)Man(b1-4)Man(b1-4)Man
# Summary of the method: as §1
# [3] = biological target: Man(b1-4)Man(b1-4)Man(b1-4)Man(b1-4)Man
# Summary of the method: as §1
# [4] = biological target: Man(b1-4)Man(b1-4)Man(b1-4)Man(b1-4)Man(b1-4)Man
# Summary of the method: as §1
# [5] = biological target: Man6P(a1-3)Man(a1-3)Man(a1-3)Man(a1-2)Man
# Summary of the method: as §1
# Neu(a2-3)Gal(b1-4)Glc = biological target: Neu(a2-3)Gal(b1-4)Glc
# Summary of the method: as §1
# [6] = biological target: Neu(a2-3)Gal(b1-4)GlcNAc(b1-3)Gal(b1-4)[Fuc(a1-3)]GlcNAc(b1-3)Gal(b1-4)Glc
# Summary of the method: as §1
# [7] = biological target: Neu(a2-3)Gal(b1-4)GlcNAc6S(b1-3)Gal(b1-4)Glc
# Summary of the method: as §1
# [8] = biological target: Neu(a2-3)Gal(b1-4)[Fuc(a1-3)]GlcNAc(b1-3)Gal(b1-4)Glc
# Summary of the method: as §1
# [9] = biological target: Neu(a2-3)Gal(b1-4)[Fuc(a1-3)]GlcNAc6S(b1-3)Gal(b1-4)Glc
# Summary of the method: as §1
# [10] = biological target: Neu(a2-3)Gal6S(b1-4)[Fuc(a1-3)]GlcN(b1-3)Gal(b1-4)Glc
# Summary of the method: as §1
# Neu(a2-6)Gal(b1-4)Glc = biological target: Neu(a2-6)Gal(b1-4)Glc
# Summary of the method: as §1
# [11] = biological target: Neu4Ac5Ac(a2-3)Gal(b1-4)Glc
# Summary of the method: as §1
# Neu5Ac(a2-3)Gal = biological target: Neu5Ac(a2-3)Gal
# Summary of the method: as §1
# [12] = biological target: Neu5Ac(a2-3)Gal(b1-3)GalNAc(b1-4)Gal(b1-4)Glc
# Summary of the method: as §1
# [13] = biological target: Neu5Ac(a2-3)Gal(b1-3)GalNAc(b1-4)[Neu5Ac(a2-3)]Gal(b1-4)Glc
# Summary of the method: as §1
# [14] = biological target: Neu5Ac(a2-3)Gal(b1-3)GalNAc(b1-4)[Neu5Ac(a2-8)Neu5Ac(a2-3)]Gal(b1-4)Glc
# Summary of the method: as §1
# [15] = biological target: Neu5Ac(a2-3)Gal(b1-3)GlcNAc(b1-3)Gal(b1-4)Glc
# Summary of the method: as §1
# [16] = biological target: Neu5Ac(a2-3)Gal(b1-3)GlcNAc(b1-3)[Fuc(a1-3)[Gal(b1-4)]GlcNAc(b1-6)]Gal(b1-4)Glc
# Summary of the method: as §1
# [17] = biological target: Neu5Ac(a2-3)Gal(b1-3)[Fuc(a1-4)]GlcNAc
# Summary of the method: as §1
# [18] = biological target: Neu5Ac(a2-3)Gal(b1-3)[Fuc(a1-4)]GlcNAc(b1-3)Gal(b1-4)Glc
# Summary of the method: as §1
# [19] = biological target: Neu5Ac(a2-3)Gal(b1-3)[Neu5Ac(a2-6)]GalNAc
# Summary of the method: as §1
# [20] = biological target: Neu5Ac(a2-3)Gal(b1-3)[Neu5Ac(a2-6)]GlcNAc(b1-3)Gal(b1-4)Glc
# Summary of the method: as §1
# Neu5Ac(a2-3)Gal(b1-4)Glc = biological target: Neu5Ac(a2-3)Gal(b1-4)Glc
# Summary of the method: as §1
# [21] = biological target: Neu5Ac(a2-3)Gal(b1-4)GlcNAc
# Summary of the method: as §1
# [22] = biological target: Neu5Ac(a2-3)Gal(b1-4)GlcNAc(b1-2)Man(a1-3)[Neu5Ac(a2-3)Gal(b1-4)GlcNAc(b1-2)Man(a1-6)]Man(b1-4)GlcNAc(b1-4)[Fuc(a1-6)]GlcNAc
# Summary of the method: as §1
# [23] = biological target: Neu5Ac(a2-3)Gal(b1-4)GlcNAc(b1-3)Gal(b1-4)Glc
# Summary of the method: as §1
# [24] = biological target: Neu5Ac(a2-3)Gal(b1-4)GlcNAc6S(b1-3)Gal6S(b1-3)GlcNAc6S
# Summary of the method: as §1
# [25] = biological target: Neu5Ac(a2-3)Gal(b1-4)[Fuc(a1-3)]GlcNAc(b1-3)Gal
# Summary of the method: as §1
# [26] = biological target: Neu5Ac(a2-3)Gal(b1-4)[Fuc(a1-3)]GlcNAc(b1-3)Gal(b1-4)Glc
# Summary of the method: as §1
# [27] = biological target: Neu5Ac(a2-3)Gal(b1-4)[Fuc(a1-3)]GlcNAc(b1-3)Gal(b1-4)[Fuc(a1-3)]GlcNAc(b1-3)Gal(b1-4)Glc
# Summary of the method: as §1
# [28] = biological target: Neu5Ac(a2-3)Gal(b1-4)[Fuc(a1-3)]GlcNAc6S(b1-3)Gal(b1-4)Glc
# Summary of the method: as §1
# [29] = biological target: Neu5Ac(a2-3)Gal(b1-4)[Fuc(a1-3)]GlcNAc6S(b1-3)Gal6S(b1-3)GlcNAc6S
# Summary of the method: as §1
# [30] = biological target: Neu5Ac(a2-3)Gal6S(b1-4)[Fuc(a1-3)]GlcNAc(b1-3)Gal(b1-4)Glc
# Summary of the method: as §1
# [31] = biological target: Neu5Ac(a2-3)Gal6S(b1-4)[Fuc(a1-3)]GlcNAc6S(b1-3)Gal(b1-4)Glc
# Summary of the method: as §1
# [32] = biological target: Neu5Ac(a2-3)[GalNAc(b1-4)]Gal(b1-3)GalNAc(b1-4)[Neu5Ac(a2-3)]Gal(b1-4)Glc
# Summary of the method: as §1
# [33] = biological target: Neu5Ac(a2-3)[GalNAc(b1-4)]Gal(b1-4)Glc
# Summary of the method: as §1
binder,measurement,setting,value
B1,glycan array binding signal (z-score),[1],-0.091
same,glycan array binding signal (z-score),Man(b1-4)GlcNAc,-0.086
same,glycan array binding signal (z-score),[2],-0.11
same,glycan array binding signal (z-score),[3],-0.113
same,glycan array binding signal (z-score),[4],-0.08
same,glycan array binding signal (z-score),[5],-0.054
same,glycan array binding signal (z-score),Neu(a2-3)Gal(b1-4)Glc,-0.072
same,glycan array binding signal (z-score),[6],-0.042
same,glycan array binding signal (z-score),[7],-0.083
same,glycan array binding signal (z-score),[8],-0.091
same,glycan array binding signal (z-score),[9],-0.075
same,glycan array binding signal (z-score),[10],-0.049
same,glycan array binding signal (z-score),Neu(a2-6)Gal(b1-4)Glc,-0.069
same,glycan array binding signal (z-score),[11],-0.079
same,glycan array binding signal (z-score),Neu5Ac(a2-3)Gal,-0.091
same,glycan array binding signal (z-score),[12],-0.077
same,glycan array binding signal (z-score),[13],-0.039
same,glycan array binding signal (z-score),[14],-0.041
same,glycan array binding signal (z-score),[15],-0.091
same,glycan array binding signal (z-score),[16],-0.09
same,glycan array binding signal (z-score),[17],-0.077
same,glycan array binding signal (z-score),[18],-0.083
same,glycan array binding signal (z-score),[19],-0.069
same,glycan array binding signal (z-score),[20],-0.091
same,glycan array binding signal (z-score),Neu5Ac(a2-3)Gal(b1-4)Glc,-0.017
same,glycan array binding signal (z-score),[21],-0.09
same,glycan array binding signal (z-score),[22],-0.091
same,glycan array binding signal (z-score),[23],-0.088
same,glycan array binding signal (z-score),[24],-0.054
same,glycan array binding signal (z-score),[25],-0.091
same,glycan array binding signal (z-score),[26],-0.083
same,glycan array binding signal (z-score),[27],-0.057
same,glycan array binding signal (z-score),[28],-0.042
same,glycan array binding signal (z-score),[29],-0.067
same,glycan array binding signal (z-score),[30],-0.091
same,glycan array binding signal (z-score),[31],-0.091
same,glycan array binding signal (z-score),[32],-0.091
same,glycan array binding signal (z-score),[33],-0.091
